# Data as given in PMC7530387.
# Chains of the proteins cited; added tags and fusions are not shown.
# UniProt P54198: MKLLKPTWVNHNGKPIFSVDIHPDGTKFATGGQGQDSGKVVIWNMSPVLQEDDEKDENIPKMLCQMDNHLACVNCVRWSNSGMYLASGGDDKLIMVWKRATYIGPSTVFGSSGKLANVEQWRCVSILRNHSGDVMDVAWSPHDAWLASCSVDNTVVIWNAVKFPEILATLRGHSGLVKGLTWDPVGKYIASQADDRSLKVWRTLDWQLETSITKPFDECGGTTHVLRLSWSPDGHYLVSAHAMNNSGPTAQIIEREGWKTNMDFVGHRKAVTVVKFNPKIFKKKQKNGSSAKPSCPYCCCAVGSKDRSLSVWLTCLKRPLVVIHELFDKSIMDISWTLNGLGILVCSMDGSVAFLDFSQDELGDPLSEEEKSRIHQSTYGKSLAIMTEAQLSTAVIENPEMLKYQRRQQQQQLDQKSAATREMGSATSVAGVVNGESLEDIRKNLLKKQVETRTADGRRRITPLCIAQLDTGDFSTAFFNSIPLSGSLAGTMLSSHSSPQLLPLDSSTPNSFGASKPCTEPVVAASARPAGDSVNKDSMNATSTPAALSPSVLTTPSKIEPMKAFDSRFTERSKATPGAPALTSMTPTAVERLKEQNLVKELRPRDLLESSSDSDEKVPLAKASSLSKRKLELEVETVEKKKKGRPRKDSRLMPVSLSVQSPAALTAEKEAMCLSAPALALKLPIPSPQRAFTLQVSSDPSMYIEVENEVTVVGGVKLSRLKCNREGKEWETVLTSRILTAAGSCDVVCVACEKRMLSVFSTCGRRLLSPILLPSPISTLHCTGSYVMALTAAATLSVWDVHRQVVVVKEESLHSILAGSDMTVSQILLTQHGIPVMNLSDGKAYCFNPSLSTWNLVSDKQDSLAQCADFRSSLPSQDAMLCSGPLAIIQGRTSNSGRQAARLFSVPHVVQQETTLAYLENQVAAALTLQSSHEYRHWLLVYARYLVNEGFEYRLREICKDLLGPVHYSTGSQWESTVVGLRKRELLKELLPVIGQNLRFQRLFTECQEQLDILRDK
# UniProt Q9NPG3: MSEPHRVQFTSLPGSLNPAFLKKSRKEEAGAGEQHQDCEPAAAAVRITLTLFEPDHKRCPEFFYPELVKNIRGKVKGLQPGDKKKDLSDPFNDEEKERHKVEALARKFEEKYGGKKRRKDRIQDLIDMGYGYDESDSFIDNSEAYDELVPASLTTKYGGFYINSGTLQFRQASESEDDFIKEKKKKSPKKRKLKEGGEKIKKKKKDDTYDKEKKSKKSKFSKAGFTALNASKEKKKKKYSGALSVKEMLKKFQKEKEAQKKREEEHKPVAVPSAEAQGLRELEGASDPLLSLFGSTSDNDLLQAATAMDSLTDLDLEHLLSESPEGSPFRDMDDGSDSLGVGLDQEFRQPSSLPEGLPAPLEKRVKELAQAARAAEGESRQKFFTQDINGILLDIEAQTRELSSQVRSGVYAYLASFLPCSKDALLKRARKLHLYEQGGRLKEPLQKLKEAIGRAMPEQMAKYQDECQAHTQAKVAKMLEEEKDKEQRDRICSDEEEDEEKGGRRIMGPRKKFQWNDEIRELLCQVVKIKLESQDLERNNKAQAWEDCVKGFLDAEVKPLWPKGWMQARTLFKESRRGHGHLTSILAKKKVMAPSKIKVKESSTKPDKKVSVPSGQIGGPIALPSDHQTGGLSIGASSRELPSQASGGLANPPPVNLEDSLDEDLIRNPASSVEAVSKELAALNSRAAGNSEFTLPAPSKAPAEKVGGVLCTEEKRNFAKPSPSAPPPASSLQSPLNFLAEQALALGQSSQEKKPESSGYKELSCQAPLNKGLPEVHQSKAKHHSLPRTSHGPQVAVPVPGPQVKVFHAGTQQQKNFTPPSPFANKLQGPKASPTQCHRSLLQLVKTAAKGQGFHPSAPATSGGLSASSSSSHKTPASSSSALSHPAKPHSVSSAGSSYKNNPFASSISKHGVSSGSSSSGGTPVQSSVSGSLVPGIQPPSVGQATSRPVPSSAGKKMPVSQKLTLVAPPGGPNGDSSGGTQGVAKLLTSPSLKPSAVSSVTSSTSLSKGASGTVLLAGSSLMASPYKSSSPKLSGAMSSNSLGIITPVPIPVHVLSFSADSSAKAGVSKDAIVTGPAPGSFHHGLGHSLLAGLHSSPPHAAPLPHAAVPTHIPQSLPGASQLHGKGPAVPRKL
# UniProt Q9Y6J0: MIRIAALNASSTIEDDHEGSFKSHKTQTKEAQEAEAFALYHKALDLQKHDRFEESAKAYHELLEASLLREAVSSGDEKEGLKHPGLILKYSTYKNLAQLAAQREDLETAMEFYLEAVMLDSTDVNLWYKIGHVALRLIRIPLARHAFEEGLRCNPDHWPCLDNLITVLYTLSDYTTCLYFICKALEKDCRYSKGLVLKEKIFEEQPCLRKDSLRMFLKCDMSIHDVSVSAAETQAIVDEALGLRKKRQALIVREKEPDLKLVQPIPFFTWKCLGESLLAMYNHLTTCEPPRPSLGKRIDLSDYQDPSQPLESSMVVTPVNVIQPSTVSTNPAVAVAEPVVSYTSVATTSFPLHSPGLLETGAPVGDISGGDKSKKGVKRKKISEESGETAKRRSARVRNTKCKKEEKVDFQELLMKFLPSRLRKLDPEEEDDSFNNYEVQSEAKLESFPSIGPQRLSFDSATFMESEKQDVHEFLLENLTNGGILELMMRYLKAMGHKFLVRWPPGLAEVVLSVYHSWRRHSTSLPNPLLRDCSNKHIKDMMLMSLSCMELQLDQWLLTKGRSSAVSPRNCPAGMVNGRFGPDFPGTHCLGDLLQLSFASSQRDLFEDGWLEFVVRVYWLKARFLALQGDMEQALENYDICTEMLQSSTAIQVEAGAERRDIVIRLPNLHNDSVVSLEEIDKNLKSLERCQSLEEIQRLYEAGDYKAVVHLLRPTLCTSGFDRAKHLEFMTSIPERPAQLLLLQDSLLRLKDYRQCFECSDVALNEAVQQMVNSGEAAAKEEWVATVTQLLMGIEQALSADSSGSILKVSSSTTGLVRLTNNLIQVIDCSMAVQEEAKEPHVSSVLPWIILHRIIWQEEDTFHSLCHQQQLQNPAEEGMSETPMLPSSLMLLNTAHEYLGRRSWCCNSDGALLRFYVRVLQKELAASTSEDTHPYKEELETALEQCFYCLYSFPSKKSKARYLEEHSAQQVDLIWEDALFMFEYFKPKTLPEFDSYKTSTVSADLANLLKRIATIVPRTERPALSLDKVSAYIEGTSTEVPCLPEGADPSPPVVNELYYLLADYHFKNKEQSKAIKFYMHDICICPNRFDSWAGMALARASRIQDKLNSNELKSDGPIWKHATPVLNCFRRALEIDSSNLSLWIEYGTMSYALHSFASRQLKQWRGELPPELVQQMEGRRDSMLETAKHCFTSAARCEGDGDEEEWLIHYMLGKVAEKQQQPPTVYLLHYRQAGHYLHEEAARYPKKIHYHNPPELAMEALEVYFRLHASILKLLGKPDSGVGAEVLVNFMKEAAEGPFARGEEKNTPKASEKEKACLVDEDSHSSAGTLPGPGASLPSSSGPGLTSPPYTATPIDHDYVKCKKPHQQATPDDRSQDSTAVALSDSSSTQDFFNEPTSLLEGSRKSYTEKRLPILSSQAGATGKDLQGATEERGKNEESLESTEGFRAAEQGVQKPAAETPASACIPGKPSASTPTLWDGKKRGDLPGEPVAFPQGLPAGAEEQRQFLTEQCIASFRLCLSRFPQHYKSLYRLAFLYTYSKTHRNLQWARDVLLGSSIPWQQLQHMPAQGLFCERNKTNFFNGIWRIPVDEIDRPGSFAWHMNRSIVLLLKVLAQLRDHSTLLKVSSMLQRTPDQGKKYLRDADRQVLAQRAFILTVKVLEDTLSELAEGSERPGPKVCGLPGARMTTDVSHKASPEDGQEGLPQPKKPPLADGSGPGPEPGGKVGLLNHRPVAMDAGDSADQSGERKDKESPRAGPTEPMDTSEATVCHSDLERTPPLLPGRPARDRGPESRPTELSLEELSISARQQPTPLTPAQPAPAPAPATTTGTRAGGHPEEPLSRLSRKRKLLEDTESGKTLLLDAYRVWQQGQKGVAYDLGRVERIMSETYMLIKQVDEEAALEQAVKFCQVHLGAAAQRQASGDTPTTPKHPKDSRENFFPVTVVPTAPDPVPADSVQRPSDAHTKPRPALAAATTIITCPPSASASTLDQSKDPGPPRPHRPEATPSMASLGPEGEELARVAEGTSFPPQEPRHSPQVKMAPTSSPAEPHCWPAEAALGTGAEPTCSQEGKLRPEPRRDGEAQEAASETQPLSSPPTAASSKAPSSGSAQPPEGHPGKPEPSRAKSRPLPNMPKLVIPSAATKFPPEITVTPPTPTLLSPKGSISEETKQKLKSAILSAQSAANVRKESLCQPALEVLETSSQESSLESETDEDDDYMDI
# These are yes or no findings as the source states them, for the method shown. In cells and extracts the contact can be indirect. Some results given as binding are weak or reduced against the parent protein; the word gives no strength. For some of these results: Where a sequence is shown, tags or fusion partners need not be part of it.
# Columns and labels:
# [1] = molecular target: T1, Prohibitin (PHB), endogenous nuclear (human (endogenous in MDA-MB-231)) (UniProt P35232); test: co-IP; soluble nuclear fraction of MDA-MB-231 cells; IP with anti-PHB antibody, IgG control; western blot for endogenous proteins
# T1 sequence: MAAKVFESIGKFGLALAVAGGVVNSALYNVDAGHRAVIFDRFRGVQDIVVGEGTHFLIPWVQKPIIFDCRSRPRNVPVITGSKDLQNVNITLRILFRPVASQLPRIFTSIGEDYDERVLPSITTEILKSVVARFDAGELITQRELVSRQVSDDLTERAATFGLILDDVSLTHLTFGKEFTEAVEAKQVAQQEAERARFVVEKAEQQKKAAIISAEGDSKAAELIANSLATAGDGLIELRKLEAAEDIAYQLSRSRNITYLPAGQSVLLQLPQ
# [2] = molecular target: T2, Flag-tagged PHB (prohibitin 1), full length (UniProt P35232); test: co-IP; Flag-tagged PHB or PHB fragments and HA-HIRA exogenously expressed in HEK 293T cells; IP with M2 beads, western blot; Co-IP buffer 50 mM Tris pH 7.4, 100 mM NaCl, 5 mM EDTA, 0.1% NP40
# T2 sequence: T1 sequence
# [3] = molecular target: T3, Flag-PHB-M (PHB domain and coiled-coil domain, aa 55-252) (UniProt P35232); test: as above
# T3 sequence: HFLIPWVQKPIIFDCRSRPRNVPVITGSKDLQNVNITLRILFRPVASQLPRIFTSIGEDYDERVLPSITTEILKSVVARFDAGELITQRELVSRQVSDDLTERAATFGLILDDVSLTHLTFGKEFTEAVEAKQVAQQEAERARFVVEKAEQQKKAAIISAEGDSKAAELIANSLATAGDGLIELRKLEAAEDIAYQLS
# [4] = molecular target: T4, Flag-PHB domain (aa 55-172) (UniProt P35232); test: as above
# T4 sequence: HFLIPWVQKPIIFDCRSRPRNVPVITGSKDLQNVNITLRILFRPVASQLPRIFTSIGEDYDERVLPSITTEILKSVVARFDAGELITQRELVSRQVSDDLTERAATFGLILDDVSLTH
# [5] = molecular target: T5, Flag-coiled-coil (PHB coiled-coil domain, aa 175-252) (UniProt P35232); test: as above
# T5 sequence: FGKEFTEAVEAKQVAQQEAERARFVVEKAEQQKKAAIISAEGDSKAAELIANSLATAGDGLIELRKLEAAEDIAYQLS
Substance,binding [1],binding [2],binding [3],binding [4],binding [5]
"HIRA (histone regulator A), endogenous (from UniProt P54198 1-1017)",binds,,,,
"UBN1 (ubinuclein 1), endogenous (from UniProt Q9NPG3 1-1134)",binds,,,,
"CABIN1 (calcineurin binding protein 1), endogenous (from UniProt Q9Y6J0 1-2220)",binds,,,,
HA-tagged HIRA (histone regulator A) (from UniProt P54198 1-1017),,binds,binds,binds,no binding
